# Out of some 48,000 compounds screened, about 450 (0.94%) were called active. About 19% were inconclusive and are not listed. Calls follow the shape of the dose curve; as a rule, active = well fitted inhibition curve with a large enough effect; inconclusive = small, poorly fitted or top-dose-only effect; inactive = no such curve, though single readings can be large or run the other way. This is one part of the list.
# Assay: Primary qHTS for Identification of Small Molecule Inhibitors of Huntingtin Promoter Activity; also: nearly all actives have a fitted effect of over 50% in size
# Details: HEK293 HTT promoter firefly luciferase reporter (activity 0% = vehicle and -100% = no light), 24 h; series mostly up to 57.5 µM; activity change, negative = inhibition: at the top concentration
# Outline: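 HEK293 Fluc reporter, 2,500 cells/well, 24 h pre-culture; cpds up to 57.5 uM final, 24 h 37 degrees C; Dual-Glo, 10 min RT; normalized vehicle = 0%, zero RLU = -100%.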
# Potency is read from the fitted curve at half-maximal effect.
Structure (SMILES),"activity change, negative = inhibition",Potency
CCOc1ccc(NC(=O)CSc2ncnc3c2sc2ccccc23)cc1,inactive: 3.01%,
CN(C)S(=O)(=O)c1ccc(C(=O)Nc2c(C(=O)Nc3ccc(F)cc3)oc3ccccc23)cc1,inactive: 2.16%,
COc1ccc(C(=O)n2nc(-c3ccc(Cl)cc3)nc2NCc2ccco2)cc1,inactive: 9.68%,
CCc1ccc(NC(=O)c2cc3c(COC(C)=O)cnc(C)c3oc2=O)cc1,inactive: 1.42%,
CNC(=O)C1CCC(Cn2c(=O)c3sccc3n(CC(=O)NCc3ccc(C)cc3)c2=O)CC1 (stereo unspecified),inactive: -13.7%,
Cn1c(=O)oc2cc(S(=O)(=O)N3CCCC(C(=O)NCc4ccccc4Cl)C3)ccc21 (stereo unspecified),inactive: -15.2%,
COc1ccc(NC(=O)Cn2c(=O)oc3cc(Cl)ccc32)c(OC)c1,inactive: -2.83%,
CCc1ccc(NC(=O)CSc2nc(C)c(C(=O)Nc3ccc(Cl)cc3)c(-c3ccc(OC)cc3)c2C#N)cc1,inactive: -12.2%,
Cc1ccc(C)c(NC(=O)CCCn2c(C)c3cnn(-c4ccccc4)c(=O)c3c2C)c1,inactive: -19.1%,
O=C(CSc1nc2c([nH]c3ccccc32)c(=O)n1-c1ccc(F)cc1)NCC1CCCO1 (stereo unspecified),inactive: -18.1%,
O=C(CSc1nc2c([nH]c3ccccc32)c(=O)n1-c1ccccc1)N1CCCc2ccccc21,inactive: 7.55%,
Cc1cccc(NC(=O)c2cc(CN3CCOCC3)on2)c1C,inactive: 2.69%,
Cc1cccc(S(=O)(=O)c2cn(C)c3cc(N4CCCCCC4)c(F)cc3c2=O)c1,inactive: -12.3%,
COc1ccc(NC(=O)Cn2nc3c(cc2=O)CCCC3)cc1Cl,inactive: -12.5%,
COc1cccc(C(=O)c2cn(CC(=O)Nc3cc(Cl)c(OC)cc3OC)c3nc(C)ccc3c2=O)c1,inactive: -9.54%,
Cc1nc(N2CCCC2)ncc1C(=O)NCc1ccc(Cl)cc1,inactive: -17%,
CC1=C(c2ccc(F)cc2)S(=O)(=O)N=C1N1CCC(C(=O)NCCc2ccccc2)CC1,inactive: -10.8%,
O=C(NCc1ccc(Cl)cc1)c1cc2ccc3cccnc3c2[nH]1,inactive: 8.46%,
COc1ccccc1N1CCN(S(=O)(=O)c2ccc(-c3ccno3)cc2OC)CC1,inactive: -19.8%,
Cc1ccc(NC(=O)NCCOCCn2c(=O)oc3ccccc32)c(C)c1,inactive: -9.18%,
CC(C)c1ccc(Cc2cn3cc(-c4cc5ccccc5oc4=O)nc3s2)cc1,inactive: -35%,
COc1cccc(-n2c(SCC(=O)Nc3cccc(C)c3)nc3c([nH]c4ccccc43)c2=O)c1,inactive: -29.2%,
Cc1ccc(C)c(NC(=O)C2CCN(c3ncnc4c3nc3n4CCCCC3)CC2)c1,inactive: -2.29%,
Cc1cccc(C)c1NC(=O)NCCCN1CCN(c2ccccc2)CC1,inactive: -9.7%,

Structure (SMILES),"activity change, negative = inhibition",Potency
CCc1ccccc1NC(=O)CC(C)S(=O)(=O)c1ccc2c(c1)NC(=O)CO2 (stereo unspecified),inactive: -8.37%,
CCc1ccc2occ(CC(=O)Nc3nnc(C)s3)c2c1,inactive: -7.73%,
CCNC(=O)C1CCN(c2nc3ccccc3nc2C(F)(F)F)CC1,inactive: -3.54%,
O=C(CSc1nc2c([nH]c3ccccc32)c(=O)n1-c1ccccc1)NCc1ccc(F)cc1,inactive: -25.5%,
O=C(CN1C(=O)C2(SCC(=O)N2c2ccccc2)c2ccccc21)Nc1ccccc1C(F)(F)F (stereo unspecified),inactive: -17.5%,
CC(=O)c1nn(-c2ccc(OC(F)(F)F)cc2)nc1Nc1ccc(Cl)cc1,inactive: 2.12%,
CCOc1ccc(NC(=O)Cn2cc(S(=O)(=O)c3ccc(C)cc3)c(=O)c3cc(F)ccc32)cc1,inactive: -21%,
COc1ccc(S(=O)(=O)N2CCC(C(=O)NC(C)c3ccccc3)CC2)cc1 (stereo unspecified),inactive: -19.6%,
Cc1ccc(CN2C(=O)C(O)(CC(=O)c3ccc(C)cc3)c3ccccc32)cc1 (stereo unspecified),inactive: -19.8%,
O=C(Nc1ccc(Br)cc1)c1cc2nc(-c3ccccc3)cc(-c3ccccc3)n2n1,inactive: -2.04%,
COc1ccc2[nH]cc(CCN=C(NC(=O)c3cccc(Cl)c3)Nc3nc(C)cc(C)n3)c2c1,inactive: -29.2%,
Cc1nc2sccn2c(=O)c1S(=O)(=O)Nc1ccc(N2CCN(C)CC2)cc1,inactive: -15.6%,
COc1cc2c(cc1OC)-c1cc(=Nc3c(C)cc(C)cc3C)n(C)c(=O)n1CC2,inactive: 4.11%,
COc1cc(OC)c(NC(=O)NCCn2nnc3cc(S(=O)(=O)N(C)C)ccc32)cc1Cl,inactive: -10.1%,
COc1ccc(-c2nn3c(=O)cc(CN4CCN(C(=O)Nc5cc(C)ccc5C)CC4)nc3s2)cc1,inactive: -18.4%,
CCCCNc1ccc(C(=O)OCCN(CC)CC)cc1,inactive: -1.87%,
Cc1cccc(N2CCN(C(=O)c3sc4nc5n(c(=O)c4c3C)CCC5)CC2C)c1 (stereo unspecified),inactive: -12.8%,
CCCCSCCCNC(=O)C1CCN(Cc2nc(-c3ccc(CC)cc3)oc2C)CC1,inactive: -7.25%,
CCOC(=O)c1c(C)[nH]c(C)c1S(=O)(=O)N1CCC(C(=O)NCc2ccc(F)cc2)CC1,inactive: -22.2%,
COc1ccc(-c2c(C#N)c(SCC(=O)Nc3ccc(C)c(C)c3)nc(C)c2C(=O)Nc2ccc(Cl)cc2)cc1,inactive: -27.4%,
O=c1[nH]c(SCc2ccccc2)nc2c1CCCC2,inactive: -10.4%,
CC(C)(C)C1CCc2nc(NC(=O)c3cccc(Cl)c3)sc2C1 (stereo unspecified),,active: 355 nM
COC(=O)c1ccc(OCC2c3cc(OC)c(OC)cc3CCN2C(=O)c2ccc(OC)cc2)cc1 (stereo unspecified),inactive: -26.9%,
COc1cc(OC)c(NC(=O)Cc2c(C(=O)O)c(C)cn2C)cc1Cl,inactive: -19.4%,

Structure (SMILES),"activity change, negative = inhibition",Potency
COc1ccc(NC(=O)C2=C(C)Nc3ncnn3C2c2sccc2C)cc1 (stereo unspecified),inactive: -11.2%,
CC(=O)N1CCCC1c1nc2ccccc2n1Cc1c(F)cccc1Cl (stereo unspecified),inactive: -10.8%,
CCc1ccc(OCC(=O)Nc2ccc(S(=O)(=O)Nc3onc(C)c3C)cc2)cc1,inactive: 14.2%,
Cc1ccc2oc(=O)n(CCNC(=O)Nc3ccccc3C)c2c1,inactive: -7.47%,
Cc1ccc(CNC(=O)Cc2c(C(=O)O)c(C)cn2C)cc1,inactive: -4.57%,
CCCCn1c(=O)c2oc3ccccc3c2n(CC(=O)Nc2cc(C)ccc2C)c1=O,inactive: -12.9%,
Cc1ccccc1NC(=O)Nc1csc2c1CCCC2,inactive: 6.72%,
COc1ccc(C(=O)CSc2nc3cc(C(=O)NC4CCCC4)ccc3c(=O)n2CC2CCCO2)cc1 (stereo unspecified),inactive: -7.6%,
CCOc1ccc(CN2C(=O)c3ccccc3Sc3ccc(C(=O)NCc4ccc5c(c4)OCO5)cc32)cc1,inactive: -24.1%,
COc1ccc(C)cc1NC(=O)C(NS(=O)(=O)c1cccs1)c1ccccc1 (stereo unspecified),inactive: -25%,
Cc1cccc(C(=O)N2CCNC(=O)C2CC(=O)Nc2ccc(F)cc2)c1 (stereo unspecified),inactive: -8.13%,
Cc1cccc(NC(=O)Cn2c(=O)n(CCc3ccccc3)c(=O)c3ccccc32)c1,inactive: -2.4%,
COc1ccc(C2C(C(=O)Nc3ccccc3)=C(C)Nc3nc(-c4ccccc4)nn32)c(OC)c1 (stereo unspecified),inactive: -17.7%,
CCCOc1cccc(C(=O)Nc2cc(-c3nc4ccccc4[nH]3)ccc2C)c1,inactive: -23.5%,
COc1cc(OC)c(NC(=O)c2sc3nc4n(c(=O)c3c2C)CCCC4)cc1Cl,inactive: 9.24%,
CCOc1cc(Cn2c(-c3ccc(O)c(OCC)c3)nc3ccccc32)ccc1O,inactive: -8.31%,
Cc1cc(C)cc(NC(=O)c2nnn(Cc3cccc(Br)c3)c2N)c1,inactive: -28.2%,
CCCCC(=O)N1CC(=O)Nc2ccc(F)cc2C1c1ccc(F)cc1 (stereo unspecified),inactive: -18.7%,
CCn1c(CNC(=O)C23CC4CC(CC(C4)C2)C3)nnc1SCC(=O)Nc1ccc(C)cc1,inactive: -32%,
Cc1ccc(S(=O)Cc2ccc(C(=O)NCc3ccc(OC(C)C)cc3)o2)cc1 (stereo unspecified),inactive: -18.9%,
Cc1nc2c3cccnc3nn2c(C)c1CCC(=O)NCc1ccccc1Cl,inactive: -15.2%,
Cc1ccc2c(Sc3ccccc3)c(C(=O)NCc3ccccc3F)[nH]c2c1,inactive: 16.5%,
CCOc1ccccc1NC(=O)CSc1nc2ccccc2nc1Cc1ccc(C)cc1,inactive: -27.2%,
CCOC(=O)[C@H](CCc1ccccc1)N[C@H]1CCc2ccccc2N(CC(=O)O)C1=O,inactive,

Structure (SMILES),"activity change, negative = inhibition",Potency
CC(=O)c1ccc(NC(=O)c2sc(-n3nc(C)c(CCC(C)C)c3C)nc2C)cc1,inactive: -14.8%,
CC(=O)Nc1ccc(NC(=O)CCc2c(C)nc3c(c(C)nn3-c3ccc(C)cc3)c2C)cc1,inactive: -7.29%,
CC(=O)Nc1ccccc1-c1nc2ccccc2n(C(C)C(=O)Nc2cc(Cl)ccc2C)c1=O (stereo unspecified),inactive: -8.77%,
CCN(CC)S(=O)(=O)c1nnc(NC(=O)COc2ccc(C)cc2)s1,inactive: -17.4%,
Cc1ccc(C)c(NC(=O)CSc2nnc(CNC(=O)c3ccccc3)n2-c2ccccc2)c1,inactive: -12.7%,
CCOc1ccc(NC(=O)c2ccc(CN3C(=O)C(C)=C(c4ccc(C)cc4)S3(=O)=O)cc2)cc1,inactive: 7.63%,
CCC(=O)Nc1ccccc1-c1nc2ccccc2n(Cc2cccc(Br)c2)c1=O,inactive: -0.229%,
Cn1c(=O)c2sccc2n2c(CCCC(=O)Nc3ccc(Cl)cc3)nnc12,inactive: -1.46%,
CC(C)n1c(/C=C/[C@@H](O)C[C@@H](O)CC(=O)O)c(-c2ccc(F)cc2)c2ccccc21,inactive: 8.13%,
COc1ccc(CN2CCCN(CC(=O)Nc3cc(C)ccc3C)S2(=O)=O)cc1,inactive: -21.5%,
CCOC(=O)c1c(C)oc2nc(C)nc(Nc3cc(C)cc(C)c3)c12,inactive: 4.5%,
COc1ccc(-c2cc(OC(=O)c3ccccc3C)c3c(C)oc(C)c3c(=O)c2)cc1,inactive: 28.2%,
O=C(CSc1nc2ccccc2n1Cc1ccc(F)cc1)N1CCN(c2ccc(F)cc2)CC1,inactive: -0.386%,
Cc1csc2nc(COC(=O)c3ccc(F)cc3)cc(=O)n12,inactive: -23.6%,
Cc1cccc(N(CC(=O)NCc2ccccc2)S(C)(=O)=O)c1C,inactive: -12.4%,
Cc1ccc(C)c(NC(=O)Cn2cnc3c(oc4ccccc43)c2=O)c1,inactive: -7%,
Cc1nnc(N2CCC(C(=O)NCCc3ccccc3)CC2)c2nn(-c3ccccc3)c(C)c12,inactive: -20.1%,
CCc1ccc(-c2nc(CN3CCC(C(=O)NCCc4ccc(C)cc4)CC3)c(C)o2)cc1,inactive: -1.36%,
COc1ccc(NC(=O)C(c2ccccc2)N2Cc3ccccc3C2=O)cc1 (stereo unspecified),inactive: -24.7%,
Cc1cc(C)c2c(=O)cc(C(=O)Nc3ccc(C)c(Cl)c3)oc2c1,inactive: -3.63%,
CCOC(=O)Cn1c(C2CC(=O)N(c3ccc(C)cc3)C2)nc2ccccc21 (stereo unspecified),inactive: -14.1%,
CCC(=O)N1c2ccccc2CC1C(=O)NCCc1ccc(SC)cc1 (stereo unspecified),inactive: -2.59%,
Cc1ccccc1OCCn1cc(C(=O)C2CCCCC2)c2ccccc21,inactive: -3.26%,
Cc1ccc(C)c(N2CCN(C(=O)Cn3cnc4sc(C)c(S(=O)(=O)N5CCN(c6ncccn6)CC5)c4c3=O)CC2)c1,inactive: -17.6%,

# Source: PubChem BioAssay AID1508623 (National Center for Advancing Translational Sciences (NCATS), 2021)
